# From PubChem BioAssay AID1508642 (National Center for Advancing Translational Sciences (NCATS), 2021)
# Among all 43,000 compounds or so, about 200 (0.47%) were called active. Not shown: some 12% with an inconclusive outcome. Calls follow the shape of the dose curve; as a rule, active = well fitted cell-killing curve with a large enough effect; inconclusive = small, poorly fitted or top-dose-only effect, or effect the other way; inactive = flat fitted curve, though single readings scatter. The list shows a part of the results.
# Test: Cell viability qHTS assay in S16 Pmp22-F2sN cells; also: nearly all actives have a fitted effect of over 65% in size
# Conditions: S16 Pmp22-F2sN Schwann cells viability, CellTiter-Glo, 24 h; series mostly up to 57.5 µM; activity change, negative = cytotoxicity: at the top concentration
# Outline: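 S16 Pmp22-F2sN Schwann cells (500-1,000/well) in phenol-red-free DMEM with 10% FBS received 23 nL compound by pin tool for 24 h at 37 °C. Viability was then read as CellTiter-Glo luminescence after 15 min at room temperature.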
# % is scaled to controls: 0 for no effect and ±100 for the full control effect.
row,SMILES,"activity change, negative = cytotoxicity"
1,CCOc1ccc(OCC)c(NC(=O)C2CCN(S(=O)(=O)c3ccc(Br)s3)CC2)c1,inactive: 3.38%
2,COc1ccc2nc(SCC(=O)c3c(C)[nH]c4ccccc34)nc(C)c2c1,inactive: 17.6%
3,CCc1ccc(NC(=O)CSc2nc3nccnc3c(=O)n2CCc2c[nH]c3ccccc23)cc1,inactive: 5.29%
4,CCc1ccc(NC(=O)C2CCN(C(=O)N3CC(CC)Oc4ccccc43)CC2)cc1 (configuration not stated),inactive: -15%
5,COc1ccc(-c2nc(C)c(CCNC(=O)Cc3ccc(F)cc3)s2)cc1OC,inactive: 5.68%
6,COc1cccc(-n2c(=O)c3c(C)c(C(=O)N(C)C)sc3n(CC(=O)NCCc3ccc(OC)c(OC)c3)c2=O)c1,inactive: -6.02%
7,Cc1cccc(NC(=O)N2CCc3c(sc4c3CCCC4)C2c2ccc(F)cc2)c1 (configuration not stated),inactive: -22.4%
8,CC(NC(=O)c1cc(Sc2ccc(F)cc2F)nc2ccccc12)c1ccccc1 (configuration not stated),inactive: -10%
9,COc1cccc(NC(=O)CCNS(=O)(=O)c2ccc(Br)s2)c1,inactive: 0.184%
10,COc1ccc(CNC(=O)Cc2csc3ccccc23)cc1OC,inactive: 8.97%
11,CCc1nn(CC(=O)N2CCCCC2)c(=O)c2cc3sccc3n12,inactive: 2.92%
12,COc1ccc2nc(NC(=O)c3nc(SCc4ccc(F)cc4)ncc3Cl)sc2c1,inactive: 15.4%
13,Cc1cn2c(=O)c(S(=O)(=O)NCCc3ccccc3)c(C)nc2s1,inactive: 16%
14,CCOc1ccc(-c2nnc(SCC(=O)NCCC(C)C)nc2-c2ccc(OCC)c(OC)c2)cc1OC,inactive: -27.3%
15,Cc1ccc(N2C(=O)CSC23C(=O)N(CC(=O)NC2CCCCC2)c2ccccc23)cc1 (configuration not stated),inactive: -0.871%
16,CC(C)OCCCNC(=O)c1ccc(-n2c(-c3ccccc3)cc3c2CCCC3)cc1,inactive: -4.78%
17,CC(C)CN1CCc2nc(N3CCN(c4ncccn4)CC3)ncc2C1,inactive: 12%
18,COc1cccc(C(=O)NCC(c2ccc(N(C)C)cc2)N2CCCC2)c1OC (configuration not stated),inactive: -0.516%
19,COCc1cc(C)nc2sc3c(c12)NC(c1ccc(O)cc1)N(c1ccc(OC)cc1)C3=O (configuration not stated),inactive: -5.41%
20,CCOc1ccc(NC(=O)C2Cc3ccccc3N2C(=O)c2ccccc2)cc1 (configuration not stated),inactive: -7.04%
21,CCOc1ccc(-c2c(C)nn3c(C)c(C(=O)Nc4ccccc4C(=O)OC)cnc23)cc1OCC,inactive: -4.99%
22,COc1cc(Cn2c(=O)sc3ccccc32)ccc1OC(C)C,inactive: -25.7%
23,COc1ccccc1NC(=O)Cc1c(C(=O)O)[nH]c2ccc(Cl)cc12,inactive: -14.2%
24,Cc1ccc(-c2nc3cc(C(C)C)ccc3o2)cc1NC(=O)c1cccs1,inactive: 8.09%

row,SMILES,"activity change, negative = cytotoxicity"
1,COCCn1c(C)cc(O)c(C(c2ccccc2)N2CCN(C)CC2)c1=O (configuration not stated),inactive: -10.2%
2,Cc1cccc(NC(=O)CSc2nc3ccc(NC(=O)c4ccco4)cc3s2)c1,inactive: 4.47%
3,CCCCOc1ccc(CNC(=O)C2CCN(c3nnc(-n4cccc4CNc4ccc(C)cc4)s3)CC2)cc1,inactive: -20.3%
4,Cc1cc2nc(-c3cc(NC(=O)c4cc5ccccc5o4)ccc3Cl)oc2cc1C,inactive: 27.4%
5,COc1cccc(C(=O)Nc2ccccc2OCc2cc(=O)n3cc(C)ccc3n2)c1,inactive: 3.58%
6,Cc1cc(NC(=O)C(C)C)cc(-c2nc3ncccc3o2)c1O,inactive: 1.78%
7,Cc1ccc2nc(-c3ccc(O)cc3)c(Nc3ccc4c(c3)OCO4)n2c1,inactive: -8.71%
8,CC(C)N(Cc1ccccc1)C(=O)CCS(=O)(=O)c1cc2c(cc1Cl)NC(=O)CO2,inactive: 3.19%
9,Cc1cc(C)n2nc(SCC(=O)Nc3ccccc3)nc2n1,inactive: 1.08%
10,N#Cc1c(NC(=O)c2cc3nc(-c4ccc(Br)cc4)cc(C(F)(F)F)n3n2)sc2c1CCCC2,inactive: 0.209%
11,O=C1CC(c2ccccc2C(F)(F)F)c2c(c3ccccc3[nH]c2=O)O1 (configuration not stated),inactive: 5.58%
12,Cc1ccccc1OCc1nnc(SCc2cc(=O)c3ccccc3[nH]2)n1C,inactive: 0.242%
13,COc1ccc(N(CC(=O)NCCc2cccc(C)c2)S(=O)(=O)c2c(C)nn(C)c2C)cc1,inactive: 18.4%
14,COc1ccccc1N1CCN(C(CNC(=O)C(=O)NCCCN(C)C)c2cccnc2)CC1 (configuration not stated),inactive: 0.478%
15,CCOC(=O)C1=C(CS(=O)(=O)c2c(C)cc(C)cc2C)NC(=O)NC1c1cccc(OC)c1 (configuration not stated),inactive: -7.28%
16,COc1ccc(-n2c(=O)c3ccc(C(=O)NCc4ccc(C)cc4)cc3n(CC(=O)Nc3ccc(F)cc3)c2=O)cc1,inactive: 0.587%
17,Cc1ccc(NC(=O)c2oc3ccccc3c2NC(=O)c2cc3ccccc3o2)cc1,inactive: 5.37%
18,O=C(CSc1cn(CCNC(=O)c2c(F)cccc2F)c2ccccc12)Nc1ccc2c(c1)OCCO2,inactive: 27.5%
19,COC(=O)c1ccc(NC(=O)c2cc(S(=O)(=O)N3CCc4ccccc43)cn2C)cc1,inactive: 19.7%
20,CC(C)CC(NS(=O)(=O)c1ccc2c(c1)oc(=O)n2C)C(=O)NCCc1ccc(Cl)cc1 (configuration not stated),inactive: -2.89%
21,Cc1cc(C)cc(NS(=O)(=O)c2ccc3[nH]cc(C(=O)N4CCCC4)c(=O)c3c2)c1,inactive: -7.54%
22,CCOc1ccccc1NC(=O)Cn1cnc2onc(-c3ccc(F)cc3)c2c1=O,inactive: -6.42%
23,O=C(OCc1cc(=O)n2nc(C3CC3)sc2n1)c1ccc(F)cc1,inactive: -11.5%
